Assay results published in PubChem BioAssay AID1030 (National Center for Advancing Translational Sciences (NCATS), 2008).
Hit rate of the full screen: of about 220,000 compounds, about 16,000 (7.3%) were called active. Inconclusive results, whose numbers are uncertain, are shown with a selection of clear calls. Calls follow the shape of the dose curve; as a rule, active = well fitted inhibition curve with a large enough effect (not every such curve was filed as active); inconclusive = small, poorly fitted or top-dose-only effect, or another doubt; inactive = no such curve, though single readings can be large or run the other way. Potencies beside an inconclusive call are fits to weak or partial responses and may not hold up.

Biological target: Aldehyde dehydrogenase 1A1 (Homo sapiens) (UniProt P00352)
Test: qHTS Assay for Inhibitors of Aldehyde Dehydrogenase 1 (ALDH1A1);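 as to activity, negative = inhibition: plate controls were no enzyme wells and a reference inhibitor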
Details: Purified ALDH1A1, NADH fluorescence, propionaldehyde substrate; series mostly up to 75.3 µM
Potency is read from the fitted curve at half-maximal effect; tags tell the direction and shape of the fitted curve.

Sequence of UniProt P00352 (P00352 whole entry, looked up): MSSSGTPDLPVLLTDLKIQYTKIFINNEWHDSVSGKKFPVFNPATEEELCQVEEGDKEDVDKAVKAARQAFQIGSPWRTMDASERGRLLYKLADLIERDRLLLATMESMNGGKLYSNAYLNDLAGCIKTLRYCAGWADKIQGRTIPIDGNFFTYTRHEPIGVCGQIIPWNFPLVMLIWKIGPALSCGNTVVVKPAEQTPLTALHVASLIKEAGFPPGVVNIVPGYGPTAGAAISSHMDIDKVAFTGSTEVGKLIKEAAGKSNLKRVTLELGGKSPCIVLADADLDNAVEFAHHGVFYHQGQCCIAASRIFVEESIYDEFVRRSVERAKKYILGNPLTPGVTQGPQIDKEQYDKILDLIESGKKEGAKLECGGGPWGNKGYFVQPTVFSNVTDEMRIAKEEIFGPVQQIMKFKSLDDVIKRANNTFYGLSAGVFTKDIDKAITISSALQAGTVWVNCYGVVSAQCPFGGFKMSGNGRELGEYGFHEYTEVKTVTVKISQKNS

Potency, inconclusive:
O=C(NC(Cc1c[nH]c2ccccc12)C(=O)O)c1ccccc1 (stereo not given) 25.1 µM [inhibitor, single point]
CC(=O)Nc1ccc2nc(-c3ccccc3)cn2c1 31.6 µM [inhibitor, partial curve]
CN1CCN(c2ncc3nc(-c4ccc(Cl)cc4)c(=O)n(Cc4ccc(F)cc4)c3n2)CC1 35.5 µM [inhibitor, single point]
O=C(c1ccc(N2CCCC2)c([N+](=O)[O-])c1)N1CCN(c2ccccn2)CC1 22.4 µM [inhibitor, single point]
COc1cc(/C=C2\COC/C(=C\c3cc(OC)c(OC)c(OC)c3)C2=O)cc(OC)c1OC 20 µM [inhibitor, partial curve]
c1ccc(CNc2ccc(CNc3ncn[nH]3)cc2)cc1 39.8 µM [inhibitor, single point]
COC(=O)C(NNc1ccccc1)(NC(=O)c1ccc(F)cc1)C(F)(F)F (stereo not given) 39.8 µM [inhibitor, single point]
Cc1ccc(CNC(=O)CSc2nc3ccsc3c(=O)n2Cc2ccccn2)cc1 39.8 µM [inhibitor, single point]
COc1ccc(C(=O)c2cc3c(cc2[N+](=O)[O-])OCCO3)cc1 28.2 µM [inhibitor, partial curve]
O=P(c1ccccc1)(c1ccccc1)c1nc(-c2ccccc2)oc1NCc1ccccc1 35.5 µM [inhibitor, single point]
COc1ccc2cc(C(=O)C3CCCN(C(=O)c4cc5nc(C)cc(C)n5n4)C3)ccc2c1 (stereo not given) 31.6 µM [inhibitor, partial curve]
CCCCSc1nc(C)c(C(C)=O)cc1C#N 39.8 µM [inhibitor, single point]
O=C(/C(C=Nc1cccc(C(F)(F)F)c1)=C(/O)c1ccco1)C(F)(F)F 12.6 µM [inhibitor, partial curve]
O=c1[nH]c(SCc2nc3c(cnn3-c3ccccc3)c(=O)[nH]2)nc2ccccc12 50.1 µM [inhibitor, partial curve, poor fit]
COc1ccc(-c2nnc(SCC(=O)c3cccs3)n2-c2ccc(Cl)cc2)cc1 2.82 µM [inhibitor, full curve]
O=C(NCc1ccccc1)C1CCN(S(=O)(=O)N2CCCCCC2)CC1 39.8 µM [inhibitor, single point]
COc1ccc(-n2c(COc3cccc(C)c3)nnc2SCC(=O)NCc2ccco2)cc1 14.1 µM [inhibitor, partial curve]
COc1cc(NC(=O)c2cc(-c3ccco3)on2)c(OC)cc1Cl 28.2 µM [inhibitor, partial curve]
Cc1ccsc1-c1ccnc(-n2cccc2)n1 37.7 µM [inhibitor, single point]
Cc1cc(C(=O)Cn2cc(C(F)(F)F)ccc2=O)c(C)n1-c1ccccc1 39.8 µM [inhibitor, single point]
CC(=O)[C@@H]1[C@@H](C(=O)c2ccc(C)cc2)[C@]2(C(=O)Nc3ccccc32)[C@H]2C=Cc3cc(F)ccc3N12 39.8 µM [inhibitor, single point]
CCOC(=O)c1cc(-c2ccco2)nc2c1c(C)nn2CCC#N 25.1 µM [inhibitor, partial curve]
COc1ccc(-n2cnc3cc(N)ccc32)cc1 35.5 µM [inhibitor, single point]
CCOC(=O)C1CCN(Cc2nc(-c3ccc(OC)c(OC)c3)no2)CC1 39.8 µM [inhibitor, single point]
Cc1cc(C)c(S(=O)(=O)ON2C(=O)c3ccccc3C2=O)cc1C 20 µM [inhibitor, partial curve]
CCCN1C(=O)/C(=C2\SC(N3CCCCC3)=NC2=O)c2ccccc21 15.8 µM [inhibitor, partial curve]
CCOc1ccc2oc(C(=O)NC3CCN(Cc4ccccc4)CC3)c(C)c2c1 39.8 µM [inhibitor, single point]
CN(C)/C=C(\C#N)C(=O)N/N=C/c1ccccc1 37.7 µM [inhibitor, single point]
Cc1cc(=O)n2nc(N3CCCC(C(=O)N4CCOCC4)C3)sc2n1 (stereo not given) 44.7 µM [inhibitor, single point]
CCN(CC)C(=O)CN1C(=O)C2(OCC(C)(c3ccccc3)CO2)c2ccccc21 (stereo not given) 35.5 µM [inhibitor, single point]
O=c1[nH]nc(Cc2ccc(-c3cccc(Cl)c3)o2)c2ccccc12 39.8 µM [inhibitor, single point]
Oc1c(Br)cc(C2N=C(c3ccccc3)NO2)cc1Br (stereo not given) 35.5 µM [inhibitor, single point]
Cc1ccc(Cl)cc1N1CCN(C(=O)CN2C(=O)c3cccc4cccc2c34)CC1 23.8 µM [inhibitor, partial curve]
COc1ccc(-c2c(C#N)c(SCC(N)=O)nc3c2CCCC3)cc1 10 µM [inhibitor, partial curve]
Cc1c(Cl)cccc1NC(=S)N(Cc1cccs1)C1CCCC1 28.2 µM [inhibitor, single point]
CCCn1c(=O)c2c(C(F)(F)F)cc(-c3ccco3)nc2n(CCC)c1=O 4.47 µM [inhibitor, full curve]
Cc1ccc(C2NC(=O)NC(O)(C(F)(F)F)C2C(=O)c2cccs2)o1 (stereo not given) 31.6 µM [inhibitor, single point]
CN1C(=O)CSc2ccc(NC(=O)N3CCN(c4ccccn4)CC3)cc21 39.8 µM [inhibitor, single point]
CC(C)CC(=O)NCCCCc1ccccc1 28.2 µM [inhibitor, single point]
COc1ccc(N2C(=O)c3ccccc3NC23CCCC3)cc1 39.8 µM [inhibitor, single point]
CCOC(=O)CSc1nc2cc(C(=O)OC)ccc2c(=O)n1CCN1CCOCC1 17.8 µM [inhibitor, partial curve]
CCN(CC)S(=O)(=O)c1ccc(OC)c(NC(=O)CSc2cc(C)ccc2C)c1 12.6 µM [inhibitor, partial curve]
O=C(CCCOc1ccccc1)N1CCN(c2ccccn2)CC1 35.5 µM [inhibitor, single point]

Potency, inactive:
Cc1ccc(NC(=O)Cc2ccc(-n3cccc3)cc2)c(C)c1
CCCCCCCC(=O)OCCOC(=O)CCCCCCC
COc1ccc(-n2cc(-c3ccccc3)nc2SC)cc1
CCC1(O)CC2CN(CCc3c([nH]c4ccccc34)[C@@](C(=O)OC)(c3cc4c(cc3OC)N(C)C3[C@]45CCN4CC=C[C@@](CC)([C@@H](OC(C)=O)[C@]3(O)C(=O)OC)[C@H]45)C2)C1 (stereo not given in full)
Cc1c(F)cccc1NS(=O)(=O)c1ccc2c(c1)NC(=O)CO2
CCOC(=O)C1(Cc2cccc(OC)c2)CCN(Cc2cnc(C)s2)CC1
O=C(Nc1ccc2c(c1)CCC2)c1ccc(Br)o1
COc1ccccc1-c1nnc(SCC(=O)O)n1-c1ccc(C)cc1
O=C(Cc1ccc(Cl)cc1)NCc1ccccc1Cl
CCOC(=O)C1CCCNC1=O (stereo not given)
Cn1c(NC(=S)Nc2ccccc2)nc2ccccc21
CCOc1cc(N2CCOCC2)c(OCC)cc1NC(=O)CSc1ncn[nH]1
Nc1nnnn1CC(=O)OCc1cccc(Br)c1
COc1ccccc1NS(=O)(=O)c1cc(NC(=O)CNC(=O)c2ccccc2)ccc1C
COc1ccc(N(C(=O)COc2ccccc2)C2C=CS(=O)(=O)C2)cc1 (stereo not given)

Potency, active:
Cc1ccc(NC(=S)NNC(=S)NC2CCCCC2)cc1 3.16 µM
CCCCCCn1c(CN2CCN(C(=O)c3ccco3)CC2)nc2c1c(=O)n(C)c(=O)n2C 1.26 µM
CN1CCN(C(=S)C(=O)Nc2ccc(Br)cc2)CC1 7.94 µM
COc1ccc(CN(C(=O)c2cnccn2)C(C(=O)Nc2ccc(F)cc2)c2ccccc2)cc1 (stereo not given) 10 µM
Cn1cccc1/C=C1\SC(=S)N(NC(=O)c2cccc(Cl)c2)C1=O 2 µM
COc1ccc(C(=O)NC(=S)NCCc2ccccc2)cc1 14.1 µM
Cc1ccc(NN=Nc2nc3c([nH]2)c(=O)n(C)c(=O)n3C)cc1 7.94 µM
COc1ccc(-n2c(Cc3ccccc3)nnc2SCC(=O)N2CCCc3ccccc32)cc1 11.2 µM
O=C1CCC2S/C(=C/Nc3ccc(C(F)(F)F)cc3)C(=O)N12 (stereo not given) 12.6 µM
CC1(C(=O)OCc2cc(=O)n3cc(Br)ccc3n2)CC1(Cl)Cl (stereo not given) 20 µM
COc1ccc(NC(=O)CSc2ccc3nnc(-c4cccnc4)n3n2)c(OC)c1 39.8 µM

activity, negative = inhibition, inactive:
C=CCN1c2ccccc2[C@]23C[C@@H](C(=O)OC)N(C(=O)c4cccs4)C2=NC(C(=O)OC)=C(C(=O)OC)[C@H]13 2.35% [at 13.5 µM]
